Target: H7-AH/13 HA (hemagglutinin of H7N9 A/Anhui/1/2013) (influenza A virus H7N9 A/Anhui/1/2013)

B1: AF4H1K1 IgG (antibody, V domains shown)
VH: QVQLVESGGGVVQPGTSLRLSCEASGFTSSAYAMHWVRQAPGKGLEWVAVITFDGGYQYYADSVKGRFTISRDISRNTLHLHMNSLRAEDTAVYYCARDPLTKLLPFDWVSGGYFDYWGQGTLVTVSS
VL: DIVMTQSPGTLSLSPGERATLS[not shown - about 80 residues]FGQGTKVEIK
- IC50 of neutralisation of H7N9 A/Anhui/1/2013 (H7-AH/13), microneutralisation: > 200 µg/mL
